# In all, about 310,000 compounds went through this assay and about 14,000 (4.5%) showed an effect of 50% or more. Effects have a minus sign here. The list shows a part of the results.
# Target: human ether-à-go-go-related gene (hERG) potassium channel (human, UniProt Q12809)
# Experiment: primary screen, population patch clamp on CHO cells stably expressing hERG
# 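Also: peak tail current of the secondary pulse compared with the same well before compound.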
# Sequence of human ether-à-go-go-related gene (hERG) potassium channel (Q12809 whole entry, looked up): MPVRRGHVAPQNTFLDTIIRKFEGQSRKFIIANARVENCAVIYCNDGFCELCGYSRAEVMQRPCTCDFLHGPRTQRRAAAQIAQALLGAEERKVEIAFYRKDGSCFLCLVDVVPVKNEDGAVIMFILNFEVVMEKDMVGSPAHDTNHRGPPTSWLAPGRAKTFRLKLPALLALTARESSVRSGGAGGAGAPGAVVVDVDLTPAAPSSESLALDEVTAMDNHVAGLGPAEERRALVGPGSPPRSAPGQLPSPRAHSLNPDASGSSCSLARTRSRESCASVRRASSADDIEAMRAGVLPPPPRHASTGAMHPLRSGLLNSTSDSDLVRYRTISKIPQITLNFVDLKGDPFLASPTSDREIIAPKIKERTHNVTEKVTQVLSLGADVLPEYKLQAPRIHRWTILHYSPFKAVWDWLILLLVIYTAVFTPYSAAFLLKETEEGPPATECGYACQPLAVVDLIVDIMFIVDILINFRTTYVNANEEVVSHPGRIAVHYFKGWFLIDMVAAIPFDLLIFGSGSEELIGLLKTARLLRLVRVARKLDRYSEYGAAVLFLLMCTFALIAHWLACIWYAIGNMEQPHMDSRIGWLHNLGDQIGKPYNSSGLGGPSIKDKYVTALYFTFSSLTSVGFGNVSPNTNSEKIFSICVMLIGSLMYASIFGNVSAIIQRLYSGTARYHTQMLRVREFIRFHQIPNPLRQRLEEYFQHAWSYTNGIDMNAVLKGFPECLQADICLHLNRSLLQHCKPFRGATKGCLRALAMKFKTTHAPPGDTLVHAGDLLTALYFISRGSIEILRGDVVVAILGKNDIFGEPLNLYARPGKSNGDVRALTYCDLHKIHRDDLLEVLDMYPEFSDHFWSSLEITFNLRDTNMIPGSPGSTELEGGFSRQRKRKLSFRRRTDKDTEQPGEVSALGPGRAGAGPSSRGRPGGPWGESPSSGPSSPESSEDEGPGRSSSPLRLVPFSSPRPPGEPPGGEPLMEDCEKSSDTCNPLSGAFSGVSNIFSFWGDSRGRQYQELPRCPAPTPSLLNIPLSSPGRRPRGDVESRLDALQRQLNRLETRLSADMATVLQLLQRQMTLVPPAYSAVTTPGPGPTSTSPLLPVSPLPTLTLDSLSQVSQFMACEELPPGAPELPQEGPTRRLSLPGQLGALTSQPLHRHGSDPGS
row,Structure (SMILES),"hERG current change (%, negative = inhibition) at 10uM [%]"
1,Cc1ccc(C)c(NC(=O)CN(C)C(=O)c2ccc(-n3cncn3)c([N+](=O)[O-])c2)c1,-26.7
2,CCc1cc(=O)oc2cc(OCC(=O)NCCCN3CCCC3=O)c(Cl)cc12,13.2
3,Cc1ccc2nc(-c3ccncc3)cc(C(=O)N3CCC4(CC3)OCCO4)c2c1,-12.8
4,CN(C)c1nnnn1Cc1ccccc1,12.1
5,CN(C)P1(N(C)C)=Nc2c(c(N)nn2C)C(c2ccccc2)=N1,-6.87
6,C/C(=N\Nc1ccccc1)c1cc2ccccc2oc1=O,-2.09
7,NC1=NC[C@H](Cc2ccccc2)N1CC1CCCCC1,0.158
8,O=C(Nc1cc(S(=O)(=O)N2CCCCC2)ccc1Cl)c1ccncc1,-50.2
9,COc1ccc(Cl)cc1NC(=O)CN(C)C(=O)c1ccc(N2CCCCC2)c([N+](=O)[O-])c1,-18.8
10,COC(=O)CCCC(=O)N1CCCC(CCC(=O)NCc2ccc(F)c(F)c2)C1 (stereo not drawn),0.17
11,Cc1occc1-c1nnc(SCC(=O)N2CCN(c3ccccc3)CC2)n1C,-27.8
12,COCCSc1ccccc1C(=O)N1CCc2ccccc2C1,-6.61
13,O=C(COC(=O)C1(c2ccc(Cl)cc2)CCCC1)NCc1ccco1,-12.9
14,CCCN(CCC)S(=O)(=O)c1ccc(NC(=O)Cc2cccs2)cc1,-11.3
15,Nc1c(C=C2C=CC(=O)C=C2)c(=O)nc2sc(CC(=O)N3CCOCC3)nn12,23.2
16,Fc1ccc(Oc2ccc3nnc(C(F)(F)F)n3n2)cc1,3.53
17,O=C(Nc1ccccc1O)c1ccccc1O,-6.23
18,CCc1nc(Nc2ccccc2F)c2oc3ccccc3c2n1.Cl,6.04
19,COC(=O)c1ccccc1N=Nc1c(N)[nH][nH]c1=O,-0.102
20,CCC(C)NC(=O)CS(=O)(=O)Cc1nc(-c2cccc(OC)c2)oc1C (stereo not drawn),4.03
21,COc1ccc([C@@H]2[C@@H]3C(=O)N(C(C)(C)C)C(=O)[C@@H]3[C@]3(Cc4ccccc4)C(=O)N(c4ccc(C(F)(F)F)cc4)C(=O)N23)cc1,-8.45
22,CC(C)(C)NC(=S)Nc1ccc(Br)cc1,-2.45

row,Structure (SMILES),"hERG current change (%, negative = inhibition) at 10uM [%]"
1,Cc1cc2[nH]c3c(c[n+](C)c4ccccc34)c2cc1C.[I-],-77.8
2,O=S(=O)(Nc1ccc(C(F)(F)F)cc1)c1cccs1,-16.5
3,CN(CCC#N)C(=O)COC(=O)c1cc(Cl)cc(Cl)c1N,-1.24
4,O=C(Nc1ccc2oc(-c3ccccc3F)nc2c1)c1ncn[nH]1,3.18
5,O=C(CCN1CCN(c2ccc(F)cc2)CC1)Nc1ccccc1F,-43
6,COc1ccc2cc3cc(C(=O)NCCCN4CCC(C)CC4)oc3nc2c1,-58.5
7,COCCNC(=O)C(c1ccco1)N(Cc1ccc(OC)cc1)C(=O)Cn1nnc2ccccc21 (stereo not drawn),-11
8,Cc1ccc(S(=O)(=O)N[C@@H](C)C(=O)OCC(=O)N2c3ccccc3NC(=O)C2(C)C)cc1,0.585
9,COc1ccc(OC)c(N(CC(=O)N2CCN(c3cc(Cl)ccc3C)CC2)S(C)(=O)=O)c1,-0.306
10,N=C1/C(=C/c2ccco2)C(=O)N=C2SC(CC(=O)N3CCCC3)=NN12,23.4
11,C[C@H](NC(=O)c1nc[nH]c1C(=O)N[C@@H](CCCCNC(=O)OC(C)(C)C)C(=O)OC(C)(C)C)c1ccccc1,9.69
12,O=c1c2cn[nH]c2[nH]c(=S)n1-c1ccccc1Cl,24
13,Cc1cc(C)c(S(=O)(=O)NCCCn2ccnc2)c(C)c1,-15.1
14,CC(C)=CC(=O)OCC(=O)Nc1ccccc1Cl,5.48
15,CCOC(=O)N1CCN(c2cc(=O)n(-c3ccc(Br)cc3)c(=O)[nH]2)CC1,6.71
16,NS(=O)(=O)c1cccc(NC(=O)CSc2nn(-c3ccccc3)c(=S)s2)c1,-2.29
17,CC(=O)Nc1ccc2c(c1)CCCC2=O,11.7
18,Cc1cccc(Oc2ncnc3onc(C)c23)c1C,4.88
19,COC(=O)/C=C1\SC(=Nc2ccccc2)NC1=O,9.64
20,COc1cccc(CNC(=O)c2cccnc2Sc2ccccc2)c1,15.7
21,COc1ccc(CCNC(=O)CSc2nc3[nH]c(=O)cc(O)c3s2)cc1,3.77
22,CN1CCN(C(=O)OC2c3nccnc3C(=O)N2c2ccc(Cl)cn2)CC1 (stereo not drawn),13.9

row,Structure (SMILES),"hERG current change (%, negative = inhibition) at 10uM [%]"
1,O=C(CCCSc1nc2ccccc2s1)Nc1nccs1,-9.09
2,O=C(O)CNC(=O)c1ccccc1F,1.74
3,N#CC12COC3(CCCCC3C1(C#N)C#N)OC2=N (stereo not drawn),11
4,CCCCOC(=O)C(C)Sc1n[nH]c(=O)[nH]c1=O (stereo not drawn),-5.93
5,C/C(=N/N1CCN(c2ccccc2)CC1)c1cccc([N+](=O)[O-])c1,14.9
6,C#CCOCCOCCOCCNc1nc(N2CCOCC2)nc(N2CCN(C(=O)CCCCCCCCCCNC(=O)[C@@H](CCC(=O)O)n3cc(CCCCCN)nn3)CC2)n1,-10.9
7,CCN(CC)S(=O)(=O)c1ccc2nc(SC)sc2c1,-15.3
8,CN(CCC#N)C(=O)COC(=O)c1ccc2[nH]c3c(c2c1)CCCC3,15.1
9,COC(=O)c1ccccc1NC(=O)CN(c1cc(OC)ccc1OC)S(C)(=O)=O,-5.81
10,COc1ccc(Cc2noc(CN(C)C3CC(C)(C)NC(C)(C)C3)n2)cc1OC,16.7
11,CCn1cc(-c2cc(C(=O)O)c3ccccc3n2)c(C)n1,24.3
12,CCOC(=O)N1CCC(N2CC34C=CC(O3)C(C(=O)Nc3ccc(F)cc3)C4C2=O)CC1 (stereo not drawn),-12.8
13,CC1(C)C2CCC1(C)C(OC(=O)CC(=O)O)C2 (stereo not drawn),15.2
14,COc1cccc(OC)c1C1=NCC(=O)Nc2c1oc1ccc(Br)cc21,-37.3
15,O=C(N/N=C/C(Br)=C/c1ccccc1)c1ccc([N+](=O)[O-])cc1,18.6
16,CCCCOc1cccc(C(=O)NNC(=S)NC2CCCCC2)c1,13.5
17,COC(=O)C1CCN(C(=O)Cc2ccccc2OC)CC1,19.2
18,COc1ccc(C(CNC(=O)c2ccc3c(c2)C(=O)N(CCC(C)C)C3=O)N2CCOCC2)cc1 (stereo not drawn),-4.04
19,O=C(CC12CC3CC(CC(Br)(C3)C1)C2)NCc1ccccc1,-30.9
20,Cc1nnc(NC(=O)c2oc3ccccc3c2C)s1,12.9
21,O=C(NC1CCCC1)c1nc2c(nnn2Cc2ccccc2Cl)c(=O)[nH]1,2.2
22,CCOc1ccc(NC(=O)CCC(=O)N/N=C/c2ccc3c(c2)OCO3)cc1,14.8

row,Structure (SMILES),"hERG current change (%, negative = inhibition) at 10uM [%]"
1,CCN1CCCC1CNC(=O)C(=O)Nc1cccc(OC)c1 (stereo not drawn),-1.67
2,Cc1ccc(NS(=O)(=O)c2ccc3c(c2)OCCCO3)cc1S(=O)(=O)N1CCOCC1,-6.02
3,CN(c1nc2ccccc2nc1Cl)S(=O)(=O)c1ccccc1,-29.8
4,COc1ccc(-n2nc(C(=O)NCc3ccco3)c3c4ccccc4n(C)c3c2=O)cc1,18.1
5,O=C(N/N=C/c1cc([N+](=O)[O-])ccc1O)c1ccc2c(c1)OCCO2,0.0931
6,CCCn1c(SCC(=O)Nc2ccc3c(c2)OCO3)nc2c1c(=O)n(C)c(=O)n2C,6.38
7,CC(/C=C1\N=C(SCc2ccccc2)SC1=O)=C\c1ccccc1,12
8,CCOc1ccc(NC(=O)CSc2nnc(COc3c(C)cccc3C)o2)cc1,11.9
9,CCCc1nc2c(=O)n(C)c(=O)[nH]c2n1CCC,1.89
10,C[C@@H]1C(=O)O[C@@H]2[C@H](O)C34[C@@H]5OC(=O)C3(O[C@H]3OC(=O)[C@H](O)C34[C@H](C(C)(C)C)[C@H]5O)[C@@]12O (stereo partly drawn),35.1
11,CC[n+]1c(C)sc2cc(C)ccc21.[I-],15
12,CCc1ccc(C2CC(c3ccccc3Cl)Nc3nc(N)nn32)cc1 (stereo not drawn),-11.4
13,O=C(c1ccc(S(=O)(=O)N2CCCC2)cc1)N1CCN(c2cccc(Cl)c2)CC1,-1.77
14,COc1ccc(-c2cc(=O)oc3cc(OCC(=O)Nc4ccc(CCO)cc4)ccc23)cc1,15.3
15,FC(F)(F)c1ccc(CNCCc2c[nH]c3ccccc23)cc1.O=C(O)C(=O)O,-25.5
16,CCC(C)NC(=O)c1cc(Cl)ccc1OC (stereo not drawn),-7.43
17,Cc1cc(C)cc(OCC(=O)Nc2cccc(S(=O)(=O)NC3=NCCC3)c2)c1,-12.1
18,CCCCOC(=O)c1ccccc1C(=O)OCc1ccccc1,10.3
19,CCCCSc1nc(C)c(C(C)=O)cc1C#N,14.1
20,Cc1cc(OCc2nc(-c3cccnc3)no2)c(C)cc1Br,5.03
21,O=C(Nn1c(SCc2ccc(F)cc2)nc2ccsc2c1=O)c1ccccc1,3.69
